Data from PubChem BioAssay AID1346428 (National Center for Advancing Translational Sciences (NCATS), 2018).
Several values for one entry are separate records, joined by “and”; a condition that tells them apart may be missing. Equal values may be shown once. The whole screen tested about 48,000 compounds, of which about 1,200 (2.5%) were called active. Not shown: some 2% with an inconclusive outcome.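 The calls were made as follows: active = activation of at least 60% and not above a set upper limit (about 1 call in 100 departs from these limits); inconclusive = activation of 40% to 60%, or above that upper limit; inactive = activation under 40%.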 The list shows a part of the results.

molecular target: Probable G-protein coupled receptor 32 (Homo sapiens) (UniProt O75388); test: qHTS for Agonists of Human Resolvin D1 Receptor DRV1; details: CHO-K1 GPR32 beta-arrestin PathHunter luminescence, 90 min; at 76.9 µM; active compounds read high; zero percent set by DMSO-only wells; also: 0% is about no effect
Sequence of UniProt O75388 (O75388 whole entry, looked up): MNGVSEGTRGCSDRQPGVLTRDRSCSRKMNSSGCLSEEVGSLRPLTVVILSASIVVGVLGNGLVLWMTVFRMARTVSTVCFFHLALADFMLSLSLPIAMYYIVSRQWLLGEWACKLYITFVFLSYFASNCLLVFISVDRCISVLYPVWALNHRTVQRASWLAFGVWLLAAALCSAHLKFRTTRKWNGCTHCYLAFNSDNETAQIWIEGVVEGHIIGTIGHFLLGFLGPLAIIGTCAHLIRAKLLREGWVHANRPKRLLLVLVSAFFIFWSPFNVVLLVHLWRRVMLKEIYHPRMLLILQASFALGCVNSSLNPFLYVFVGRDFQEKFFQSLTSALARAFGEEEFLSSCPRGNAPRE
Summary of the method: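 PathHunter beta-arrestin recruitment in CHO-K1 cells stably expressing ProLink-tagged GPR32. Cells were exposed to compound for 90 min at 37 C, then chemiluminescence was read after 1 h detection at ambient temperature; DMSO served as basal control.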

activation, active:
Cc1cc(F)ccc1NS(=O)(=O)c1ccc(-n2cccn2)cc1 106%

activation, inactive:
COCCCNC(=O)CCC(=O)N1Cc2cccc(OC)c2Oc2ncccc21 -6.23%
CCn1c(C(=O)NCc2ccccc2C)cc2oc3ccccc3c21 32.7%
COC(=O)c1ccccc1NC(=O)c1ncoc1-c1ccco1 12.9%
CCCc1cc(=O)oc2c3c(ccc12)OCN(Cc1ccc(OC)cc1)C3 -24%
NC(N)=NS(=O)(=O)c1ccc(N)cc1 -3.49%
Cc1ccccc1OCCSc1nc2ccc(NC(=O)c3ccccc3)cc2s1 8.62%
Cc1nc(-c2cccc(NC(=O)Nc3ccc([N+](=O)[O-])cc3)c2)no1 -1.05%
COCC(=O)NCc1nc2cccnc2n1Cc1ccc(F)cc1 -2.28%
Cc1ccc(NC(=O)CSc2ccc(-c3cccs3)nn2)cc1Cl -4.99%
CN(c1ccccc1)S(=O)(=O)c1ccc(NC(=O)c2cc(=O)c3ccccc3o2)cc1 -4.26%
Cc1oc(C)c2c(=O)cc(-c3ccc4c(c3)OCO4)cc(OC(=O)c3cccc(Br)c3)c12 -2.65%
O=C(CCn1cnnn1)Nc1ccc(F)cc1 -9.77%
COc1ccc(Nc2cc(C(=O)NCCCN3CCN(c4ccc(OC)cc4)CC3)c3ccccc3n2)cc1 -36.7%
COc1ccc(-n2ncc(C(=O)NCCc3ccsc3)c2C2CCN(C(=O)OC(C)(C)C)CC2)cc1 -9.87%
Cc1ccc(Cn2c(CNS(=O)(=O)c3ccc(F)c(Cl)c3)nc3cccnc32)cc1 -27%
Cc1ccccc1CCNC(=O)c1ccc2c(c1)nc1n2CCC(C)C1 (centres undefined) -10.1%
COc1ccccc1C1Nc2ccccc2-n2c(-c3ccccc3)c3c(=O)n(C)c(=O)n(C)c3c21 (centres undefined) -15%
Cc1cc(NC(=O)c2cccc(Cl)c2)ccc1-c1cc2ccccc2oc1=O -6.72%
Cc1noc(-c2ccc(N3CCCCC3)c([N+](=O)[O-])c2)n1 6.98%
CCCCc1nn2c(=O)cc(COC(=O)c3ccc(NC(=O)c4ccccc4C)cc3)nc2s1 12.2%
COc1ccc(-c2noc(-c3ccc(N4CCN(c5ccccc5)CC4)c([N+](=O)[O-])c3)n2)cc1OC -1.12%
CCOC(=O)C1(C)C=C(Nc2cccc(C(=O)O)c2)C(=O)N1c1cccc(C(=O)O)c1 (centres undefined) 9.07%
COc1ccc(OC)c(CNC(=O)Cc2ccc(NC(=O)N3CCSc4ncccc43)cc2)c1 1.84%
O=C(C1CCN(c2ncnc3c2nc2n3CCCCC2)CC1)N1CCN(c2cccc(Cl)c2)CC1 -5.14%
Cc1ccc(CCNC(=O)c2ccc3c(c2)nc2n3CCC(C)C2)cc1 (centres undefined) -15.2%
COc1cc2c(cc1OC)C(COc1ccccc1OC)N(C(=O)COc1ccc(Cl)cc1)CC2 (centres undefined) 37.8%
Cc1cn[nH]c1 -7.81% and 2.07%
O=C1CS(=O)(=O)C2(C(=O)N(Cc3ccccc3)c3ccccc32)N1c1ccccc1 (centres undefined) -9.13%
Cc1cc(C)n(CCc2nc3c4ccccc4nc(N4CCN(c5ccccc5)CC4)n3n2)n1 1.49%
COc1cccc(CNC(=O)C2CCCCN2S(=O)(=O)c2ccc(F)cc2)c1 (centres undefined) -1.24%
CCCCNC(=O)C1CCC(Cn2c(=O)c3sccc3n(CC(=O)N3CCCC3)c2=O)CC1 (centres undefined) -4.49%
Clc1cccc(-n2ncc3c(N4CCC(Cc5ccccc5)CC4)ncnc32)c1 -17.4%
Cc1cc(C)cc(NC(=O)C(=O)NCC(c2cccnc2)N2CCc3ccccc3C2)c1 (centres undefined) -18.1%
CCc1ccccc1NC(=O)c1sc2nc3c(cc2c1N)CN(Cc1ccccc1)CC3 -13.4%
O=C(CSc1nncn2c1cc1sccc12)Nc1ccc(Br)cc1F -13.8%
CCOC(=O)c1c(C)oc2nc(C)nc(NCc3ccc(OC)cc3OC)c12 1.09%
COC(=O)c1cccnc1-n1c(=O)c2cccnc2n(CC(=O)Nc2ccccc2F)c1=O -4.53%
O=C(Nc1cc(C(F)(F)F)ccc1Cl)c1nc2ccccc2nc1N1CCCCC1 11.1%
O=C(Cn1c(=O)nc(-c2ccccc2)c2ccccc21)NCc1ccc(Cl)cc1 -9.37%
CCc1ccc(NC(=O)CCn2nc(C)c(S(=O)(=O)N3CCCCC3)c2C)cc1 3.92%
CCOc1ccc(Cn2c(CNS(=O)(=O)c3ccc(Cl)s3)nc3cccnc32)cc1 -29.5%
COc1cccc(N2CCN(S(=O)(=O)c3ccc(-n4cnnn4)cc3)CC2)c1 0.538%
COc1ccc2c(C)cc(SCC(=O)Nc3nsc(-c4ccccc4C)n3)nc2c1 -6.21%
CCOC(=O)c1ccccc1NC(=O)Cn1c(=O)n(-c2cccc(C)c2)c(=O)c2c1c1cc(C)ccc1n2C -13.2%
CCOc1ccccc1NC(=O)C1CCN(S(=O)(=O)c2ccc3c(c2)CC(C)N3C(C)=O)CC1 (centres undefined) 3.97%
O=C(NCC(c1ccc2c(c1)OCO2)N1CCOCC1)c1cccc(Cl)c1 (centres undefined) -23.1%
COc1cc(C2C(C(=O)Nc3ccccc3C)=C(C)Nc3ncnn32)ccc1OCC(N)=O (centres undefined) -7.26%
O=C(NCc1ccc(Cl)cc1)C(=O)NCC(c1cccs1)S(=O)(=O)c1cccs1 (centres undefined) -0.305%
CC1CCN(c2ccc(-c3cccc(NS(=O)(=O)c4ccc(Cl)s4)c3)nn2)CC1 -20.4%
CCCOc1ccc(-c2nonc2NC(=O)COc2ccc(C)cc2)cc1OCCC 3.03%
COCCn1c(SCC(=O)c2ccc(OC)cc2)nc2cc(C(=O)NC3CCCC3)ccc2c1=O -42.6%
CC(C)(C)NC(=O)Cn1cc(S(=O)(=O)Cc2ccc(F)cc2)c2ccccc21 -13.4%
CCOC(=O)CNC(c1ccccc1)c1cc(Br)ccc1NC(=O)c1ccc(Cl)cc1 (centres undefined) -33%
